Measurements as given in PubChem BioAssay AID1240 (Sanford-Burnham Center for Chemical Genomics, 2008).
The campaign covered roughly 50,000 compounds. About 800 (1.6%) showed an effect of 50% or more. Some of the results follow.

Molecular target: Bcl-2-like protein 10 (Homo sapiens) (UniProt Q9HD36)
Experiment: Phenotype converters, Bcl-B/TR3 peptide binding displacement, primary biochemical FP (AID 1240);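 further: 0% = Bcl-B with tracer peptide and DMSO and 100% = tracer peptide lacking Bcl-B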
Details: GST-Bcl-B / FITC-TR3 peptide fluorescence polarization; stronger effect = higher value; compound at 3.75 mg/L

UniProt Q9HD36, sequence (Q9HD36 whole entry, looked up): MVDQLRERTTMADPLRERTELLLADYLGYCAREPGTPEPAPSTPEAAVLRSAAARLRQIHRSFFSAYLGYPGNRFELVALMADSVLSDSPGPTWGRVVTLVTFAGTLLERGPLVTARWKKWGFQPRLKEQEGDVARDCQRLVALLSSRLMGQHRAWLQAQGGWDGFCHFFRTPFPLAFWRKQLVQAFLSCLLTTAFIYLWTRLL

Compound	displacement
CC(C)COc1ccc(C(=O)Nc2ccccc2)cc1	7.9%
CCOc1ccccc1NC(=O)CN(c1ccc(OC)cc1)S(=O)(=O)c1ccccc1	5.4%
CCCc1c(C)nc2ccc(OC)cc2c1SCC(=O)O	-4.3%
CCCCOc1ccc(C(=O)NCCc2ccccc2)cc1	9.6%
COc1ccc(C(=O)N/C(=C\c2ccc(-c3cccc([N+](=O)[O-])c3)o2)C(=O)NC(C)C)cc1	11.2%
CCN(CC)C(=O)C1CN(S(=O)(=O)c2ccccc2)CCN1S(=O)(=O)c1ccccc1 (stereo unspecified)	1.4%
COC(=O)C1=C(C)N(c2ccc(Br)cc2)C(=O)/C1=C\c1ccc(O)cc1	-4.8%
CCOc1cccc(-c2cc(C(=O)N3CCN(C)CC3)c3ccccc3n2)c1	-5.5%
COC(=O)c1cc(C(=O)Nc2ccc(C(N)=O)cc2)cc([N+](=O)[O-])c1	16.4%
CCOCCOC(=O)c1cccc(NC(=O)OCC)c1	3.8%
O=C1Nc2ccc(Br)cc2/C1=C/C(=O)c1ccc(Cl)cc1	-5.6%
O=C(O)CN1C(c2ccccc2)=Nc2ccc(Br)cc2C1c1ccccc1 (stereo unspecified)	6.6%
Cc1c(Cl)cccc1NC(=O)C(C)C	1.4%
Cc1cc(=O)oc2ccc(OCC(=O)O)cc12	5.3%
O=C1c2cccc([N+](=O)[O-])c2C(=O)N1c1ccncc1	-2.3%
CN(C)c1ccnc2sc(C(=O)Nc3ccccc3)c(N)c12	-6.1%
CCN1CN=C2SC(CO)(CO)C(=O)N2C1	11.4%
Cn1c2ccc(I)cc2c2cc(C(=O)C(F)(F)F)ccc21	-6%
COc1ccccc1Cc1noc(-c2ccc(OC)c(OC)c2)n1	9%
Cc1cc(NCCN2CCCCCC2)n2c(nc3ccccc32)c1C#N	27.3%
CCc1ccccc1NC(=O)/C(C#N)=C\c1ccc(I)o1	-7%
CN(C)c1ccc(NC(=O)c2cccc3ccccc23)cc1	23.3%
CCOC(=O)C1(C)C=C(Nc2ccc(S(=O)(=O)Nc3nccs3)cc2)C(=O)N1c1ccccc1 (stereo unspecified)	-4.7%
O=c1c2c(-c3ccccc3)csc2ncn1/N=C/c1ccccn1	18.5%

Compound	displacement
CC(C)(C)OC(=O)NNC(=O)C12CC3CC(CC(C3)C1)C2	2.1%
COc1ccc(NC(=O)CN(c2cccc(Br)c2)S(=O)(=O)c2ccccc2)cc1	6.6%
Cc1ccc(C(=O)Nc2ccccc2C(=O)O)cc1	13%
O=c1oc2ccccc2c(NCc2ccco2)c1[N+](=O)[O-]	1.2%
C=CCN1C(=O)/C(=C\c2ccc(-c3ccc(Cl)c(Cl)c3)o2)SC1=S	50.1%
CC1(C(=O)Nc2ccccc2Cl)CC2c3ccccc3C1c1ccccc12 (stereo unspecified)	0%
CC(C)N1C(=O)/C(=C/c2cccc([N+](=O)[O-])c2)SC1=S	0.8%
O=C1S/C(=C\c2ccc(-c3ccccc3[N+](=O)[O-])o2)C(=O)N1c1ccccc1	47.7%
COc1ccccc1NC(=O)C1=C(C)NC(=O)NC1c1ccc(Cl)cc1Cl (stereo unspecified)	-13.4%
O=c1[nH]c(SCc2cccc3ccccc23)nc2ccccc12	4.4%
COc1ccc(CNS(=O)(=O)c2ccc(NC(C)=O)cc2)cc1	-2.9%
Cc1cccc(-c2cc(C(=O)O)c3ccccc3n2)c1	-4.1%
O=C(Nc1ccc(NC(=O)c2ccccc2Br)cc1)c1ccccc1Br	13.4%
COC(=O)c1c(NC(=O)c2cc3ccccc3oc2=O)sc(C)c1C	-1.7%
Oc1c(Br)cc(/C=N/Nc2nc3ccccc3s2)c(O)c1Br	-6%
COc1ccc(-c2nc3cc(NC(=O)c4ccc([N+](=O)[O-])cc4Cl)ccc3o2)cc1OC	-2.4%
COc1ccc(C2CC(=O)NC(SCc3ccccc3)=C2C#N)cc1OCc1ccccc1 (stereo unspecified)	7.8%
NS(=O)(=O)c1ccc(NC(=O)/C(=C\c2ccc(Br)cc2)NC(=O)c2ccccc2)cc1	1.8%
N#CC(C(=O)Nc1cccc2ccccc12)=C1CCCC1	0.5%
CCc1ccc(N2C(=O)/C(=C/c3ccc(I)o3)C(=O)NC2=S)cc1	-30.7%
CC(/C=C/c1ccc2c(c1)OCO2)=N\NC(=O)COc1ccccc1[N+](=O)[O-]	6.7%
CCc1ccc(N2C(=O)/C(=C/c3cc(Cl)c(OCC(=O)O)c(Cl)c3)C(=O)NC2=S)cc1	-11.9%
COCc1cc(CN2CCOCC2)c(O)c2ncccc12	-15.7%
COc1ccc(N(CC(N)=O)S(=O)(=O)c2ccccc2)cc1Cl	12.3%

Compound	displacement
CC(/C=N/NC(=O)c1cc(C)[nH]n1)=C\c1ccccc1	-1.9%
COc1ccc(C2C(C(C)=O)=C(O)C(=O)N2CC2CCCO2)cc1OC (stereo unspecified)	1.3%
O=C(Nc1ccc2c(c1)OCO2)c1ccc(I)cc1	12.7%
CCCCC1(C(=O)O)CC(C)=C(C)CC1C(=O)O (stereo unspecified)	14%
O=C(NC(=S)NCc1cccnc1)c1cccs1	7.3%
COc1ccc(NC(=O)CN(c2ccc(OC)cc2)S(C)(=O)=O)cc1	6.2%
COc1cccc(OCCn2cc(/C=N/n3cnnc3)c3ccccc32)c1	-1.9%
CCN1C(=O)/C(=C/c2cc([N+](=O)[O-])ccc2OC)SC1=S	48.1%
COc1cccc(C(=O)/C=C/c2ccccc2Cl)c1	-5.8%
Cc1ccccc1-c1cc(C(=O)NCCc2ccccc2)c2ccccc2n1	-6.9%
O=C(Nc1ccc(Cl)cc1)C1C2/C=C\CCCCC21 (stereo unspecified)	-6.4%
O=C(NCC1(c2ccccc2)CCOCC1)c1cccc(Cl)c1	-3.7%
COc1ccc(-n2c(C)c(C(C)=O)c3cc(OC(=O)c4ccccc4OC(C)=O)ccc32)cc1	-5.3%
FC(F)(F)C(=C(NC(=S)n1cnc2ccccc21)C(F)(F)C(F)(F)F)C(F)(F)F	8.7%
CC(C)NC(=O)C(=O)NN=C1CCCC1	-15.3%
COc1ccc(C2Nc3ccccc3NC3=C2C(=O)CC(c2ccc(OC)c(OC)c2)C3)cc1 (stereo unspecified)	13.9%
CNC(=O)c1cc(-c2ccc(OC)cc2)nc2ccccc12	-3.2%
Cc1cc(C)n(C(=O)c2ccc(F)cc2)n1	-11%
CCSc1nnc(NC(=O)c2cnccn2)s1	4.6%
O=C(Nc1ccc2c(c1)oc1ccccc12)c1ccc(I)cc1	37.8%
Nc1nnc(SCC(=O)N2CCc3ccccc3C2)s1	8.3%
COc1ccc(/C=C/C(=O)Nc2nc(C)c(C)s2)cc1OC	47.5%
O=C1C(=Cc2c(NCCO)nc3ccccn3c2=O)SC(=S)N1Cc1ccco1	16.4%
